Structures are written as SMILES. Hit rate of the full screen: of about 43,000 compounds, about 200 (0.47%) were called active. Another 12% or so got no clear call; they are omitted. Calls follow the shape of the dose curve; as a rule, active = well fitted cell-killing curve with a large enough effect; inconclusive = small, poorly fitted or top-dose-only effect, or effect the other way; inactive = flat fitted curve, though single readings scatter. Some of the results follow.
% is scaled to controls: 0 for no effect and ±100 for the full control effect.

The assay is described as follows: Cell viability qHTS assay in S16 Pmp22-F2sN cells. Also: nearly all actives have a fitted effect of over 65% in size. The note with it: S16 Pmp22-F2sN Schwann cells (luciferase reporters placed in the Pmp22 gene) viability, CellTiter-Glo, 24 h; series mostly up to 57.5 µM; activity change, negative = cytotoxicity: at the top concentration. The gist of the method: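 Seed 500-1,000 S16 Pmp22-F2sN cells per well in phenol-red-free DMEM with 10% heat-inactivated FBS; pin-add 23 nL compound; incubate 24 h at 37C; add CellTiter-Glo, wait 15 min protected from light; read luminescence.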
On the technique in general: Quantitative high-throughput screening tests each substance at several concentrations.
`CC(C)CCNC(=O)Cn1cc(S(=O)(=O)Cc2ccc(F)cc2)c2ccccc21`: the “activity change, negative = cytotoxicity” value is inactive: -16.4%.

Regarding `COc1cc(NC(=O)Nc2c[nH]c(=O)[nH]c2=O)cc(OC)c1OC`, the “activity change, negative = cytotoxicity” value is inactive: 12.5%.

For `Cc1ccc(NC(=O)C(=O)NCC(c2ccc3c(c2)OCO3)N2CCN(C)CC2)cc1C` (stereo not drawn), the “activity change, negative = cytotoxicity” value is inactive: -6.67%.

For the molecule `Cc1c(C(=O)Oc2ccc(Br)cc2)sc2ncn(Cc3ccccc3F)c(=O)c12`, the “activity change, negative = cytotoxicity” value was inactive: 5.98%.

For `COc1ccc(-c2cc(C(=O)NCc3ccc(C)cc3)c3cc(C(C)C)ccc3n2)cc1`, the “activity change, negative = cytotoxicity” value was inactive: 1.98%.

For the molecule `Cn1c(=O)n(C)c2cc(N3CCOCC3)c(NS(=O)(=O)c3ccc(F)cc3)cc21`, the “activity change, negative = cytotoxicity” value was inactive: -1.91%.

As for `O=C1CN(C(=O)c2c(F)cccc2Cl)C(c2ccc(F)cc2)c2cc(Br)ccc2N1` (stereo not drawn), the “activity change, negative = cytotoxicity” value is inactive: -26.9%.

Take `Cc1ccc2c(c1)c1c(c(=O)n(-c3ccccc3)c(=O)n1CC(=O)c1ccc(Cl)cc1)n2C`: the “activity change, negative = cytotoxicity” value was inactive: 9.49%.

As to `Cc1ccc2nc(/C(C#N)=C/c3ccc(-c4ccc(C(=O)OC(C)C)cc4)o3)[nH]c2c1`, the “activity change, negative = cytotoxicity” value was inactive: -16.4%.

Consider `Fc1ccc(-c2nnn3c2nc(NCc2ccccc2)c2ccccc23)cc1`, for which the “activity change, negative = cytotoxicity” value was inactive: 3.85%.

Take `CCOc1cc(C(=O)Nc2ccc(-c3nnc4n3CCCCC4)cc2)cc(OCC)c1OCC`: the “activity change, negative = cytotoxicity” value was inactive: -9.38%.

Turning to `COC(=O)c1cccc(CN2C(=O)SC(Nc3ccccc3C)C2=O)c1` (stereo not drawn), the “activity change, negative = cytotoxicity” value is inactive: -7.47%.

With `CCc1ccc(CNC(=O)C2CCN(C(=O)c3ccc(-n4c(C)cc5ccccc54)s3)CC2)cc1`, the “activity change, negative = cytotoxicity” value was inactive: -28.5%.

Consider `COc1ccc(-n2c(=O)c3c4c(sc3n(CC(=O)C(C)(C)C)c2=O)CCCC4)c(OC)c1`, for which the “activity change, negative = cytotoxicity” value is inactive: -2%.

`CN(C(=O)CSc1nc2ccc(NC(=O)c3cccs3)cc2s1)c1ccccc1`: the “activity change, negative = cytotoxicity” value is inactive: -23.6%.

In the case of `CCOc1ccc(NC(=O)CSc2nccn2C2CCCC2)cc1`, the “activity change, negative = cytotoxicity” value was inactive: -1.27%.

As to `COc1ccc(Cl)cc1C(=O)NCC(c1ccc(N(C)C)cc1)N1CCCC1` (stereo not drawn), the “activity change, negative = cytotoxicity” value is inactive: 1.95%.

For the molecule `O=C(Cn1c(-c2cccs2)cc2cc(Cl)ccc21)N1CCCCC1`, the “activity change, negative = cytotoxicity” value was inactive: -2.69%.

Turning to `Cc1ccc(NC(=O)C2CCCN(S(=O)(=O)c3ccc4c(c3)CCCC(=O)N4)C2)cc1N(C)C` (stereo not drawn), the “activity change, negative = cytotoxicity” value is inactive: -0.583%.

On to `Cc1ccc(C)c(NC(=O)Cn2c(=O)n(CCCS(=O)(=O)C3CCCCC3)c(=O)c3ccccc32)c1`, for which the “activity change, negative = cytotoxicity” value is inactive: 1.98%.

For the molecule `Cc1ccc(-c2ccc(CCC(=O)O)n2-c2ccc(C)c(Cl)c2)cc1`, the “activity change, negative = cytotoxicity” value is inactive: -1.64%.

As for `CCOC(=O)c1cccc(NC(=O)c2cc3c(Cl)nc4ccc(C)cc4c3s2)c1`, the “activity change, negative = cytotoxicity” value is inactive: 8.84%.

Consider `COc1ccc(-n2cc(-c3ccccc3)c3c(SC(C)C(C)=O)ncnc32)cc1` (stereo not drawn), for which the “activity change, negative = cytotoxicity” value was inactive: 6.72%.

On to `COc1ccc(NC(=O)C(=O)NCCc2ccccc2)cc1OC`, for which the “activity change, negative = cytotoxicity” value was inactive: -2.99%.

For `COc1cccc(C(=O)Nc2ccccc2C(=O)OCc2cc(=O)n3nc(C)sc3n2)c1`, the “activity change, negative = cytotoxicity” value was inactive: 3.64%.

As to `COc1ccccc1CNC(=O)CSc1ncc2c(n1)-c1ccccc1N(Cc1ccc(C)cc1)S2(=O)=O`, the “activity change, negative = cytotoxicity” value was inactive: 15.2%.

For `COc1ccc(-c2noc(C3CC(=O)N(c4ccc(C)c(F)c4)C3)n2)c(OC)c1` (stereo not drawn), the “activity change, negative = cytotoxicity” value was inactive: -0.301%.

Regarding `CCN1CCN(C(=O)c2ccc3c(c2)N(Cc2cccc(Cl)c2)C(=O)c2ccccc2S3(=O)=O)CC1`, the “activity change, negative = cytotoxicity” value was inactive: -1.88%.

`CCc1nnc(SCc2ccc(F)cc2Cl)c2cc3sccc3n12`: the “activity change, negative = cytotoxicity” value was inactive: 18.7%.

As to `Cc1ccc(C)c(NC(=O)C(C)n2c(=O)cc(C(F)(F)F)c3c(C)nn(C)c32)c1` (stereo not drawn), the “activity change, negative = cytotoxicity” value was inactive: 8.2%.

On to `CC1CCC(NC(=O)c2ccc3c(c2)N(Cc2cccc(F)c2)C(=O)c2ccccc2S3)CC1` (stereo not drawn), for which the “activity change, negative = cytotoxicity” value was inactive: -5.68%.

Take `CCc1ccc(CNC(=O)c2ccc3c(c2)nc2n3CCOC2)cc1`: the “activity change, negative = cytotoxicity” value was inactive: 10.9%.

Consider `Fc1ccc(-c2cc(-c3nc(-c4cccc(Cl)c4)no3)[nH]n2)cc1`, for which the “activity change, negative = cytotoxicity” value is inactive: 2.09%.

In the case of `Cc1ccc(NC(=O)C(=O)NCC(c2cccnc2)N2CCN(C)CC2)cc1C` (stereo not drawn), the “activity change, negative = cytotoxicity” value was inactive: -2.81%.

Regarding `Cc1ccc(OCC(=O)Nc2ccc(C(=O)OCc3cc(=O)n4nc(C5CC5)sc4n3)cc2)cc1`, the “activity change, negative = cytotoxicity” value is inactive: 25.5%.

Consider `COc1ccc(NC(=O)c2oc3c(c2C)-c2nn(Cc4c(F)cccc4Cl)cc2CC3)c(OC)c1`, for which the “activity change, negative = cytotoxicity” value was inactive: 1.36%.

Regarding `COc1ccc(CNc2nc3c(S(=O)(=O)c4ccccc4)nnn3c3ccc(Cl)cc23)cc1`, the “activity change, negative = cytotoxicity” value is inactive: -1.29%.

Turning to `CCOc1ccc(Nc2oc(/C=C/c3ccc(F)cc3)nc2C#N)cc1`, the “activity change, negative = cytotoxicity” value was inactive: -0.614%.

Take `CCOC(=O)c1ccccc1NC(=O)CSc1ccc(-c2sc(-c3ccccc3)nc2C)nn1`: the “activity change, negative = cytotoxicity” value is inactive: -0.0607%.

On to `Cc1cc(C)n(-c2nc3ccccc3nc2Nc2cccc(C(F)(F)F)c2)n1`, for which the “activity change, negative = cytotoxicity” value was inactive: 4.71%.

Take `COc1ccc(OC)c(-c2nc(Nc3ccccc3C)sc2CC(=O)O)c1`: the “activity change, negative = cytotoxicity” value was inactive: -21.9%.

For `COc1ccc(C2C(C(=O)Nc3ccccc3)=C(C)Nc3nc(-c4ccccc4)nn32)cc1OC` (stereo not drawn), the “activity change, negative = cytotoxicity” value is inactive: 10.7%.

With `O=C1CCSC2(C(=O)N(Cc3ccc(F)cc3)c3ccccc32)N1c1ccccc1` (stereo not drawn), the “activity change, negative = cytotoxicity” value is inactive: -1.97%.

With `Fc1ccccc1CNCCCSc1nnnn1-c1ccccc1`, the “activity change, negative = cytotoxicity” value is inactive: -1.44%.

In the case of `Cc1cc(C)c2c(CC(=O)Nc3nnc(C(C)C)s3)coc2c1`, the “activity change, negative = cytotoxicity” value was inactive: 2.24%.

Regarding `COc1ccc(-c2cc(C(C)=O)c(C)n2CCC(=O)Nc2cc(C)ccc2OC)cc1`, the “activity change, negative = cytotoxicity” value was inactive: -5.49%.

Turning to `O=c1c2ccccc2n(Cc2cccc(Cl)c2)c(=O)n1CCc1ccccc1`, the “activity change, negative = cytotoxicity” value was inactive: 25.5%.

`CC(=O)NCCc1nc2ccccc2n1CCCCOc1ccc(Cl)cc1`: the “activity change, negative = cytotoxicity” value was inactive: -15%.

(Values after PubChem BioAssay AID1508642 (National Center for Advancing Translational Sciences (NCATS), 2021).)
